Experimental data as given in PubChem BioAssay AID485294 (National Center for Advancing Translational Sciences (NCATS), 2010).
Out of some 370,000 compounds screened, about 150 (0.041%) were called active. Inconclusive means that the source gave no clear call. Such entries were picked first, then a sample of the others. Calls come from the whole dose curve; as a rule, active = well fitted inhibition curve with a large enough effect; inconclusive = small, poorly fitted or top-dose-only effect; inactive = flat fitted curve, though single readings scatter. No potency is given beside an inconclusive call; the fits are too rough.

molecular target: Beta-lactamase (Escherichia coli (strain K12)) (UniProt P00811); assay: qHTS Inhibitors of AmpC Beta-Lactamase (assay with detergent); settings: AmpC hydrolysis of nitrocefin, absorbance 480 nm, 0.01% Triton; series mostly up to 114 µM; note: nearly all actives have a fitted effect of over 25% in size
Chain of UniProt P00811 (P00811 whole entry, looked up): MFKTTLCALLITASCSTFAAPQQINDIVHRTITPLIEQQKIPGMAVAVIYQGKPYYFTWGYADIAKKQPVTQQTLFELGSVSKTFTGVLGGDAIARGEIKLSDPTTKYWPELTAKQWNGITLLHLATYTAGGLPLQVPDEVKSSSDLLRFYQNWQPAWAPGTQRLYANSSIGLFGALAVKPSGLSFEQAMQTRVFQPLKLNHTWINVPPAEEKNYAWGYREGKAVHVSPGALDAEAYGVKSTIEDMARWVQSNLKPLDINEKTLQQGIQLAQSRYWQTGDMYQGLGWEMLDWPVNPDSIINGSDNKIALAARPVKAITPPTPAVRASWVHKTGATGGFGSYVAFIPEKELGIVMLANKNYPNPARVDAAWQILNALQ
How it was run: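 20 mM phosphate pH 7.0 + 0.01% (detergent screen) or 0.0001% Triton X-100; 5.3 nM AmpC reagent; cpd preinc 15 min RT; nitrocefin (800 uM stock) to start; A480 q20 s × 4 min; Activity was normalised to no-enzyme and no-compound control wells.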
Potency is the fitted concentration of half-maximal effect; tags give direction and shape of the fitted curve.

**Q.** With Cc1cccc(N2CCN(C(=O)CN(C)S(=O)(=O)c3ccc4c(c3)CCC(=O)N4)CC2)c1C as the compound, how does the Potency read?
**A.** Its Potency is inconclusive [inhibitor, full curve, poor fit].

**Q.** For C=CCNC(=O)/C(C#N)=C\c1cc(Cl)c(O)c(OCC)c1, which Potency is on record?
**A.** Its Potency is “inactive”.

**Q.** How did the Potency turn out when Cc1cccc(C)c1NC(=S)N=Nc1c(O)n(C)c2ccc(S(=O)(=O)N3CCOCC3)cc12 was run?
**A.** The Potency was “inactive”.

**Q.** For Cc1c(NC(=O)C(C)OC(=O)c2ccc(NC(=O)CC#N)cc2)c(=O)n(-c2ccccc2)n1C (stereo not given), which Potency is on record?
**A.** Its Potency is inconclusive [inhibitor, partial curve, poor fit].

**Q.** With CCCOC(=O)c1ccc(NC(=O)Cc2csc(C)n2)cc1 as the compound, how does the Potency read?
**A.** Its Potency is “inactive”.

**Q.** For COCc1nnc(NC(=O)C23CC4CC(CC(C4)C2)C3)s1, which Potency is on record?
**A.** Its Potency is inconclusive [inhibitor, full curve, poor fit].

**Q.** CCOC(=O)C(NC(=O)c1cccc(Cl)c1)(OCc1ccccc1)C(F)(F)F (stereo not given) was tested. Which Potency did it give?
**A.** The Potency was “inactive”.

**Q.** For Cc1c(C(=O)NCc2ccccc2)sc2nc3n(c(=O)c12)CCC3, which Potency is on record?
**A.** The Potency was “inactive”.

**Q.** With Cc1ccccc1CNC(=O)C1CCC(=O)N(Cc2cccc(F)c2)C1 (stereo not given) as the compound, how does the Potency read?
**A.** The Potency was inconclusive [inhibitor, full curve].

**Q.** How did the Potency turn out when CCOc1cc(/C=C2\SC(=N)N(c3nccs3)C2=O)ccc1OCCN1CCOCC1 was run?
**A.** The Potency was inconclusive [inhibitor, partial curve, poor fit].

**Q.** Which Potency does the source give for O=C(Nc1ccccc1C(=O)Nc1ccccc1C(=O)NCc1ccco1)c1ccco1 here?
**A.** Its Potency is “inactive”.

**Q.** How did the Potency turn out when O=C(Nc1ccc(S(=O)(=O)NC2=NCCCCC2)cc1)c1ccc([N+](=O)[O-])s1 was run?
**A.** Its Potency is “inactive”.

**Q.** How did the Potency turn out when CC(=O)c1c(C)oc2ccc(N(C(=O)c3ccncc3)S(=O)(=O)c3ccccc3)cc12 was run?
**A.** Its Potency is inconclusive [inhibitor, full curve, poor fit].

**Q.** Which Potency does the source give for COc1ccc(CCNC(=O)c2nnc(Cc3ccc(Cl)cc3)o2)cc1OC here?
**A.** The Potency was inconclusive [inhibitor, full curve, poor fit].

**Q.** How did the Potency turn out when Brc1cccc(-c2cnc3n2CCCCC3)c1 was run?
**A.** Its Potency is inconclusive [inhibitor, partial curve, poor fit].

**Q.** How did the Potency turn out when O=Nc1c(-c2c(O)[nH]c3cc(Br)ccc23)[nH]c2ccccc12 was run?
**A.** Its Potency is inconclusive [inhibitor, single point].

**Q.** COc1ccc(NC(=O)c2sc3nc(C)cc(C)c3c2N)cc1 was tested. Which Potency did it give?
**A.** Its Potency is “inactive”.

**Q.** For CCOC(=O)CC(=O)Nc1nnc(CC(C)C)s1, which Potency is on record?
**A.** The Potency was inconclusive [inhibitor, full curve, poor fit].

**Q.** For Cc1ccc(N(C(=O)CS(=O)CC(=O)Nc2ccc(F)cc2)C(C)C(=O)NC(C)(C)C)cc1 (stereo not given), which Potency is on record?
**A.** Its Potency is “inactive”.

**Q.** For CCOc1ccc(CN2CCN(CCCc3ccccc3)C(CCO)C2)cc1 (stereo not given), which Potency is on record?
**A.** The Potency was inconclusive [inhibitor, full curve].

**Q.** How did the Potency turn out when Cc1cc(N2C(=O)CC(N3CCC(n4c(=O)[nH]c5ccccc54)CC3)C2=O)no1 (stereo not given) was run?
**A.** The Potency was “inactive”.

**Q.** With Cc1ccc(C)c(CN2CCSCC2)c1 as the compound, how does the Potency read?
**A.** Its Potency is inconclusive [inhibitor, partial curve, poor fit].

**Q.** How did the Potency turn out when CCc1nc(SCc2cccnc2)c2c(=O)n(C)c(=O)n(C)c2n1 was run?
**A.** The Potency was inconclusive [inhibitor, partial curve].

**Q.** With COc1ccc(-c2cc(C3CCN(Cc4cccc(C(F)(F)F)c4)CC3)[nH]n2)cc1 as the compound, how does the Potency read?
**A.** The Potency was inconclusive [inhibitor, full curve].

**Q.** Which Potency does the source give for CCn1c(SCC(=O)Nc2ccc3c(c2)OCO3)nc2c1c(=O)n(C)c(=O)n2C here?
**A.** Its Potency is inconclusive [inhibitor, full curve, poor fit].

**Q.** For COc1ccc(C)cc1NC(=O)NC1CCCCCCC1, which Potency is on record?
**A.** The Potency was “inactive”.

**Q.** With CCOC(=O)C1=C(c2ccccc2)NC(SCC(=O)Nc2ccc(C)cc2)=C(C#N)C1c1ccco1 (stereo not given) as the compound, how does the Potency read?
**A.** Its Potency is “inactive”.

**Q.** Which Potency does the source give for CCCCCCn1c(N)c(C(=O)NCCN2CCOCC2)c2nc3ccccc3nc21 here?
**A.** Its Potency is inconclusive [inhibitor, full curve].

**Q.** With CCOC(=O)c1cccc(NC(=O)CSc2nnc(-c3ccncc3)n2CCCOC)c1 as the compound, how does the Potency read?
**A.** The Potency was inconclusive [inhibitor, full curve].

**Q.** Which Potency does the source give for O=C1NCC(COCc2ccccc2)O1 (stereo not given) here?
**A.** Its Potency is inconclusive [inhibitor, full curve].

**Q.** CCNc1nc(Cl)nc(NCc2ccccc2)n1 was tested. Which Potency did it give?
**A.** The Potency was inconclusive [inhibitor, full curve, poor fit].

**Q.** With O=C1c2ccccc2-n2c1nc1ccccc1c2=O as the compound, how does the Potency read?
**A.** The Potency was inconclusive [inhibitor, full curve, poor fit].

**Q.** With CCc1ccc2nc(N(CCN(C)C)C(=O)c3ccc4ccccc4c3)sc2c1 as the compound, how does the Potency read?
**A.** Its Potency is inconclusive [inhibitor, full curve, poor fit].

**Q.** For CCN(CC)CC(=O)NN=C(c1ccccc1)c1ccccc1, which Potency is on record?
**A.** Its Potency is “inactive”.

**Q.** With O=C(NCCCN1CCCC1=O)C(=O)Nc1cccc(F)c1 as the compound, how does the Potency read?
**A.** The Potency was “inactive”.

**Q.** CCN1C(=O)C2(C(C#N)=C(N)Oc3n[nH]c(-c4ccccc4)c32)c2ccccc21 (stereo not given) was tested. Which Potency did it give?
**A.** The Potency was “inactive”.

**Q.** For Cc1ccccc1S(=O)(=O)Cc1ccc(C(=O)NCCCN2CCCC2)o1, which Potency is on record?
**A.** The Potency was inconclusive [inhibitor, full curve, poor fit].

**Q.** How did the Potency turn out when CCOc1ncccc1C(=O)OCCN1C(=O)c2ccccc2C1=O was run?
**A.** The Potency was “inactive”.

**Q.** For FC(F)(F)c1ccc(Sc2nnc(-c3cccs3)n2CC2CCCO2)nc1 (stereo not given), which Potency is on record?
**A.** Its Potency is “inactive”.

**Q.** How did the Potency turn out when Cc1noc(C)c1C(=O)NCc1ccccc1F was run?
**A.** Its Potency is inconclusive [inhibitor, partial curve].

**Q.** With Cc1cc2nsnc2c(S(=O)(=O)N2CCN(C)CC2)c1C as the compound, how does the Potency read?
**A.** The Potency was inconclusive [inhibitor, full curve, poor fit].

**Q.** Which Potency does the source give for COc1ccc(C(=O)NNC(=S)Nc2ccccc2)cc1 here?
**A.** Its Potency is inconclusive [inhibitor, full curve, poor fit].

**Q.** For COc1ccc(NC(=S)NC(NC(=O)CF)C(Cl)(Cl)Cl)c([N+](=O)[O-])c1 (stereo not given), which Potency is on record?
**A.** The Potency was inconclusive [inhibitor, partial curve].

**Q.** Clc1ccc(CSc2nc3ccncc3[nH]2)cc1 was tested. Which Potency did it give?
**A.** The Potency was inconclusive [inhibitor, single point].

**Q.** For Cc1ccc(C(=O)NCC(=O)OCC(=O)Nc2ccc(Cl)cn2)cc1, which Potency is on record?
**A.** The Potency was “inactive”.
